Assay results taken from the supplement of paper PMC12217912.
Some of the results follow. Sequences were assembled here from the parent chain. Inactive controls read about 0.05.

B1: TEV protease; numbered along this chain (parent)
chain: MGESLFKGPRDYNPISSSICHLTNESDGHTTSLYGIGFGPFIITNKHLFRRNNGTLVVQSLHGVFKVKDTTTLQQHLVDGRDMIIIRMPKDFPPFPQKLKFREPQREERICLVTTNFQTKSMSSMVSDTSCTFPSGDGIFWKHWIQTKDGQCGSPLVSTRDGFIVGIHSASNFTNTNNYFTSVPKNFMELLTNQEAQQWVSGWRLNADSVLWGGHKVFMVKPEEPFQPVKEATQL

Variants of: B1
Experiment: raw area under fraction-flipped curve 0-4 h after induction (AUC4h, not background-subtracted), DNA-recorder readout of cleavage of the substrate (dimensionless); higher = more cleavage of the substrate by the protease variant
Details: temperature: 34 °C; time window: 0-4 h after rhamnose induction
Description: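 In vivo DNA recorder in E. coli TOP10(DE3) ΔrhaA at 34 °C. Each TEVp single-site mutant (parent TEVp 0) is paired with a single-site variant of the 7-mer TEVs (canonical ENLYFQ|S). The substrate sits between flexible linkers in a Bxb1-sfGFP-TEVs-SsrA fusion, so cleavage stabilises Bxb1 and speeds flipping of a recombination array, read by NGS. The value is the raw area under the fraction-flipped curve over 0-4 h after rhamnose induction (AUC4h), with ≥20 reads per time point. It is not background-subtracted; inactive controls average about 0.047.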
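Further: Bxb1 expression induced with 0.2% (w/v) L-rhamnose at OD600 near 0.5, cultures sampled hourly, flipped fraction per protease–substrate barcode pair counted by paired-end Illumina sequencing.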

Variant	area with substrate ENAYFQS	area with substrate ENCYFQS	area with substrate ENEYFQS	area with substrate ENFYFQS	area with substrate ENIYFQS	area with substrate ENKYFQS	area with substrate ENQYFQS	area with substrate ENRYFQS	area with substrate ENSYFQS	area with substrate ENTYFQS	area with substrate ENDYFQS	area with substrate ENGYFQS	area with substrate ENHYFQS	area with substrate ENMYFQS	area with substrate ENNYFQS	area with substrate ENYYFQS	area with substrate ENPYFQS	area with substrate ENVYFQS	area with substrate ENWYFQS
H62R	0.0644	0.0657	0.0658	0.074	0.11	0.0706	0.0553	0.0412	0.0914	0.0652	–	–	–	–	–	–	–	–	–
S4T	0.0455	0.0649	0.0599	0.0604	–	–	0.0512	0.0107	–	0.0682	0.0746	0.0538	0.0516	0.0885	0.0703	0.0786	–	–	–
E223M	0.048	0.0852	0.0641	0.0607	0.0913	0.062	0.0584	0.0517	0.0524	0.0715	–	–	–	–	0.0583	–	0.0618	0.0706	–
N193T	0.0594	–	0.0694	–	–	–	0.0621	–	0.0388	–	–	–	0.0686	–	0.0597	–	–	0.056	0.0694
E25V	0.0692	0.0683	0.0638	0.0578	0.105	0.064	0.0561	0.0678	0.0562	0.0601	0.056	0.0599	0.0911	–	0.0347	0.0822	–	0.0694	–
S121G	0.0582	0.049	0.0679	–	0.129	–	–	0.0799	0.0417	0.0634	–	0.0608	0.0624	0.0694	0.0542	0.0585	–	0.0754	–
D82G	0.0456	0.0669	0.0606	0.0575	–	0.0621	0.0626	–	0.0671	0.0576	0.0675	0.0463	–	0.0453	0.0559	–	0.0532	0.0511	–
S135V	0.0523	0.0614	0.0609	0.0581	–	0.069	0.0556	–	0.0502	0.0449	0.0584	0.0649	0.0617	0.0498	0.0655	–	0.0693	0.0537	–
S127M	0.0684	0.0603	0.0608	–	0.119	0.076	0.062	0.0652	0.0805	0.0668	0.0625	0.0591	–	0.0798	0.0568	0.0607	0.0688	–	0.056
K68V	0.0664	0.0609	0.068	0.0657	0.0999	0.081	0.0594	0.0451	0.0925	0.0693	0.0594	–	0.0537	–	–	–	0.0606	0.0767	–
I19M	0.0609	0.067	0.039	0.0568	0.105	0.0787	0.0568	0.0687	0.0707	0.072	0.0628	–	0.0421	–	0.0601	0.0394	0.0557	0.081	0.0546
N45F	0.0657	0.0388	0.0599	0.0464	0.0665	0.0752	0.0668	0.061	–	0.0617	0.071	0.0663	–	0.066	0.0576	0.0563	0.0594	–	0.0644
N45M	0.0627	0.0699	0.0634	0.0575	0.0622	0.0889	0.0624	0.0602	0.0572	0.0629	0.0479	0.0526	–	0.0502	0.0653	–	0.0545	0.0513	0.0884
N45R	0.058	0.0603	–	–	0.0541	–	0.0586	–	0.0602	0.0605	0.0584	0.064	0.0634	0.0812	–	–	0.0619	0.0606	–
Q59F	0.0451	0.0701	0.0299	–	0.0841	0.068	0.0917	0.0617	0.0637	0.0698	–	–	0.05	–	0.0855	–	–	0.0446	–
Q59M	0.0596	0.0746	0.0522	0.0615	0.0824	0.0379	0.0484	–	0.058	0.0638	0.0481	0.035	0.0629	–	0.0542	0.0546	0.0622	–	–
H47M	0.057	0.0578	0.0491	0.0524	–	0.0507	0.0496	0.0672	0.0687	0.0564	0.0589	0.0766	0.0593	–	0.0655	–	0.0719	0.07	0.0551
I167Y	0.062	0.0844	0.051	0.0574	0.0663	–	–	0.0566	0.0578	–	–	0.047	0.0589	–	0.0639	0.0413	0.0585	0.0797	0.0449
G214Y	0.0558	–	–	–	–	0.0755	0.0539	–	0.0309	–	0.05	0.0694	0.0628	–	0.0513	0.0399	–	0.0579	–
E195M	0.0393	–	0.0587	0.0663	–	–	0.0633	0.0665	0.0729	0.0708	0.0739	0.0596	–	0.0678	0.07	–	0.0524	0.0573	–
S158D	0.0472	–	–	–	0.0907	0.0636	0.0507	–	0.0604	0.0439	0.064	0.0537	0.058	0.0831	–	–	0.0591	0.0561	0.0155
G150Q	0.0495	–	0.0582	0.0547	–	–	0.059	0.0442	0.0783	0.0635	0.0637	–	–	0.0631	0.0748	0.0659	0.0729	–	–
K142R	0.0472	0.0655	0.0656	–	–	0.0754	0.0566	–	–	0.0599	0.0634	–	0.0625	–	0.0459	–	–	0.0757	–
T114W	0.0698	–	0.0742	0.0646	0.0979	0.0751	0.0608	0.0519	0.043	–	0.0533	0.0678	0.076	–	0.0682	–	–	0.0847	–
M219G	0.0536	0.0545	0.0559	0.0538	0.0908	0.0699	0.0628	0.0551	0.0602	0.0575	0.0568	0.0504	0.0538	0.0664	0.0658	0.0593	0.0553	0.0688	0.0105
